According to patent publication US20230295068A1, “NOVEL CYCLOALKENONE COMPOUND OR SALT THEREOF” (TAIHO PHARMACEUTICAL CO., LTD., priority 2020, published 2023):
The name of at least one read-out is uncertain.

Tested on: ND3 neuronal cell line
Assay: Measurement of nerve growth stimulation effect (neurite bearing assay, neurite length assay, number of cells)
Assay type: cell-based
Details: 6 hours, relative activity, maximum activity of compound 24 = 1
Protocol: To evaluate the nerve growth stimulation effect, neurite bearing assay (proportion of neurite-bearing cells) and neurite length assay (neurite length) were analyzed with reference to the method of Topalli et al. (Brain Research 1030 (2004), pp. 116-124).
An ND3 neuronal cell line (European Collection of Authenticated Cell Cultures) was seeded in a DMEM medium containing 10% fetal bovine serum (0.6×10^4 cells/1 mL) in a 24-well plate. 24 hours later, the medium of seeded cells was removed, and a solution in which the compound of the present disclosure that was sequentially diluted in dimethyl sulfoxide (DMSO) was adjusted in DIEM containing 0.1% bovine serum albumin so that the DMSO final concentration was 0.1%, was added to cells (evaluation performed in duplicate). After six hours from the addition, the proportion of neurite-bearing cells (the number of cells having a neurite longer than the diameter of the cell body/number of total cells), and the neurite length per cell were analyzed. The number of total cells, proportion of neurite-bearing cells, and neurite length per cell were analyzed using a MetaMorph Neurite Outgrowth Application Module (Molecular Devices Japan K.K.). The number of cells was defined as the relative cell number, taking the number of cells per well containing DMSO as 1. The relative activity of each compound when the maximum activity of 3-(15-methoxypentadecyl)-2,4,4-trimethylcyclohexa-2-en-1-one (compound 24) in each test was defined as 1 is shown (Table 9). For the compounds for which multiple tests were conducted, the average value was shown. Data with a number of cells of 0.5 or more was also used. Accordingly, if the number of cells was less than 0.5, the neurite length per cell and the proportion of neurite-bearing cells were defined as “-”.

Compound | Neurite length per cell (1 μM) | Proportion of neurite-bearing cells (1 μM) | Neurite length per cell (3 μM) | Proportion of neurite-bearing cells (3 μM) | Neurite length per cell (5 μM) | Proportion of neurite-bearing cells (5 μM) | Neurite length per cell (10 μM) | Proportion of neurite-bearing cells (10 μM) | Neurite length per cell (30 μM) | Proportion of neurite-bearing cells (30 μM) | Neurite length per cell (100 μM) | Proportion of neurite-bearing cells (100 μM)
COCCCCCCCCCCCCCCCCC1=C(C)C(=O)CCC1(C)C [Compound 29, 3-(16-methoxyhexadecyl)-2,4,4-trimethylcyclohex-2-en-1-one] | 0.25 | 0.18 | 0.29 | 0.24 | 0.28 | 0.24 | 0.36 | 0.31 | 0.46 | 0.42 | 0.60 | 0.54
CCOCCCCCCCCCCCCCCCCC1=C(C)C(=O)CCC1(C)C [Compound 30, 3-(16-ethoxyhexadecyl)-2,4,4-trimethylcyclohex-2-en-1-one] | 0.27 | 0.22 | 0.31 | 0.26 | 0.36 | 0.37 | 0.39 | 0.41 | 0.39 | 0.37 | 0.75 | 0.70
CC1=C(CCCCCCCCCCCCCCCCOC(C)C)C(C)(C)CCC1=O [Compound 31, 3-(16-isopropoxyhexadecyl)-2,4,4-trimethylcyclohex-2-en-1-one] | 0.29 | 0.28 | 0.27 | 0.28 | 0.33 | 0.38 | 0.32 | 0.34 | 0.34 | 0.36 | 0.40 | 0.40
CNC(=O)CCCCCCCCCCCCCCC1=C(C)C(=O)CCC1(C)C [Compound 33, N-methyl-15-(2,6,6-trimethyl-3-oxocyclohex-1-en-1-yl)pentadecanamide] | 0.26 | 0.19 | 0.30 | 0.26 | 0.36 | 0.34 | 0.53 | 0.51 | 0.59 | 0.58 | 0.94 | 0.95
CC1=C(CCCCCCCCCCCCCCCOC(N)=O)C(C)(C)CCC1=O [Compound 35, 15-(2,6,6-trimethyl-3-oxocyclohex-1-en-1-yl)pentadecylcarbamate] | 0.26 | 0.20 | 0.33 | 0.29 | 0.50 | 0.51 | 0.82 | 0.91 | – | – | – | –
CC1=C(CCCCCCCCCCCCCCCOC(=O)N(C)C)C(C)(C)CCC1=O [Compound 36, 15-(2,6,6-trimethyl-3-oxocyclohex-1-en-1-yl)pentadecyl dimethylcarbamate] | 0.31 | 0.28 | 0.54 | 0.51 | 0.63 | 0.61 | 0.69 | 0.63 | 0.94 | 1.01 | 0.86 | 0.92
COCCCCCCCCCCCCCCCC1=CC(=O)CCC1(C)C [Compound 39, 3-(15-methoxypentadecyl)-4,4-dimethylcyclohex-2-en-1-one] | 0.20 | 0.16 | 0.21 | 0.17 | 0.24 | 0.21 | 0.40 | 0.34 | 0.98 | 1.00 | – | –
COCCCCCCCCCCCCCCCC1=CC(=O)CCC12CC2 [Compound 43, 4-(15-methoxypentadecyl)spiro[2,5]oct-4-en-6-one] | 0.28 | 0.27 | 0.31 | 0.33 | 0.39 | 0.44 | 0.50 | 0.55 | 0.53 | 0.54 | 0.57 | 0.59
COCCCCCCCCCCCCCCCC1=C(C)C(=O)C(C)C1C (stereo not drawn) [Compound 46, 3-(15-methoxypentadecyl)-2,4,5-trimethylcyclopent-2-en-1-one] | 0.38 | 0.37 | 0.48 | 0.52 | 0.67 | 0.82 | 0.96 | 1.28 | 1.60 | 1.98 | 1.88 | 2.15
COC(C)(C)CCCCCCCCCCCCCCC1=C(C)C(O)CCC1(C)C (stereo not drawn) [Compound 47, 3-(15-methoxy-15-methylhexadecyl)-2,4,4-trimethylcyclohex-2-en-1-ol] | 0.27 | 0.27 | 0.28 | 0.28 | 0.31 | 0.31 | 0.34 | 0.34 | 0.33 | 0.35 | 0.39 | 0.42
COC(C)(C)CCCCCCCCCCCCCCC1=C(C)C(=O)CCC1(C)C [Compound 48, 3-(15-methoxy-15-methylhexadecyl)-2,4,4-trimethylcyclohex-2-en-1-one] | 0.30 | 0.34 | 0.31 | 0.30 | 0.36 | 0.40 | 0.31 | 0.30 | 0.47 | 0.50 | 0.45 | 0.53
CC1=C(CCCCCCCCCCCCCCCOC(F)(F)F)C(C)(C)CCC1=O [Compound 49, 2,4,4-trimethyl-3-(15-(trifluoromethoxy)pentadecyl)-cyclohex-2-en-1-one] | 0.24 | 0.13 | 0.24 | 0.15 | 0.22 | 0.14 | 0.21 | 0.12 | 0.25 | 0.15 | 0.27 | 0.16
CC1=C(CCCCCCCCCCCCCCCOc2ccccc2)C(C)(C)CCC1=O [Compound 51, 3-(15-phenoxypentadecyl)-2,4,4-trimethylcyclohex-2-en-1-one] | 0.20 | 0.12 | 0.19 | 0.11 | 0.18 | 0.10 | 0.18 | 0.11 | 0.20 | 0.12 | 0.24 | 0.13
CC1=C(CCCCCCCCCCCCCCCOCc2ccccc2)C(C)(C)CCC1=O [Compound 52, 3-(15-(benzyloxy)pentadecyl)-2,4,4-trimethylcyclohex-2-en-1-one] | 0.22 | 0.13 | 0.22 | 0.12 | 0.21 | 0.11 | 0.21 | 0.12 | 0.25 | 0.15 | 0.26 | 0.16
